Experimental data as given in PubChem BioAssay AID588855 (National Center for Advancing Translational Sciences (NCATS), 2011).
Screen size: about 410,000 compounds; about 5,000 (1.2%) were called active. Inconclusive results, whose numbers are uncertain, are shown with a selection of clear calls. The call rests on the fitted dose curve; in most records, active means well fitted inhibition curve with a large enough effect; inconclusive means small, poorly fitted or top-dose-only effect; inactive means no such curve, though single readings can be large or run the other way. Where the call is inconclusive, the potency comes from a doubtful curve fit.

Assay: qHTS for Inhibitors of TGF-b; further: nearly all actives have a fitted effect of over 65% in size
Conditions: HepG2 CAGA-GFP TGF-b/SMAD3 reporter, GFP fluorescence, 18 h, TGF-beta stimulated, 500 pg/mL final; series mostly up to 46.1 µM; activity, negative = inhibition: at the top concentration
Outline: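 HEPG2 CAGA-GFP, 1000 cells/well; 2 h settle, 37 C; cpd via pin tool; TGF-b 500 pg/mL final; 18 h, 37 C; GFP imaging ex488/em500-530; %Activity normalised to -TGF-b and +DMSO controls; CRC fit, curve class.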
On the % scale 0 is the no-effect control and ±100 the full control effect; potency means the concentration at half of the fitted maximal effect; tags describe the fitted curve by direction and shape.

Row | Compound | Potency | activity, negative = inhibition
1 | COCC(=O)OC1CCn2c1nc1c2C(=O)C(C)=C(NC(C)=O)C1=O (configuration not stated) | inconclusive: 22.4 µM [inhibitor, partial curve, poor fit] | 
2 | O=[N+]([O-])c1cccc(S(=O)(=O)NCC2CC3CCC2C3)c1 (configuration not stated) |  | inactive: -3.97%
3 | Cc1cccc(NC(=S)N=Nc2c(O)n(CN3CCOCC3)c3ccccc23)c1C | active: 2.24 µM | 
4 | CC(=O)Nc1ccc(NC(=O)CNS(=O)(=O)c2ccc(C)cc2)cc1 | inconclusive: 3.55 µM [inhibitor, partial curve] | 
5 | COc1ccc(CC(N)c2csc(NC(=O)Nc3ccccc3C(C)(C)C)n2)cc1 (configuration not stated) | inconclusive: 35.5 µM [inhibitor, single point] | 
6 | Cc1ccc2cc(/C=C3\N=C(c4ccccc4)OC3=O)c(N3CCOCC3)nc2c1 | inconclusive: 3.55 µM [inhibitor, single point] | 
7 | COC(=O)c1[nH]c2ccccc2c1NC(=O)CN1CCN(C/C=C/c2ccccc2)CC1 | inconclusive: 14.1 µM [inhibitor, single point] | 
8 | Nc1nnc(SCc2nnc(-c3ccccc3)o2)s1 | inconclusive: 20 µM [inhibitor, single point] | 
9 | CCCC(C)C1c2c(c(C)c(C)oc2=O)Oc2c(C)c(C)oc(=O)c21 (configuration not stated) | inconclusive: 6.31 µM [inhibitor, single point] | 
10 | COc1ccc(NC(=S)Nc2cnc3ccccc3c2)c(OC)c1 |  | inactive: -0.737%
11 | O=S(=O)(c1ccccc1)N1CCCC1c1cccs1 (configuration not stated) |  | inactive: -4.12%
12 | Cc1sc(NC(=O)c2ccco2)c(C(c2ccncc2)N2CCOCC2)c1C (configuration not stated) |  | inactive: -13.2%
13 | COc1ccc(S(=O)(=O)N2CCC(C(=O)NCC3CC3)CC2)cc1 |  | inactive: 0.454%
14 | Cn1c(=O)c2c(nc(NCc3ccccc3)n2CCCc2ccccc2)n(C)c1=O | inconclusive: 0.112 µM [inhibitor, full curve, poor fit] | 
15 | Cc1csc(N/N=C/c2ccccn2)n1 | inconclusive: 15.8 µM [inhibitor, single point] | 
16 | O=C(COC(=O)c1ccccc1)NCCCCc1ccccc1 |  | inactive: -1.2%
17 | O=C(C[C@H]1C(=O)N(CCc2ccccc2)C[C@@H]1Cc1ccccc1)Nc1ccc(Br)cc1 | inconclusive: 17.8 µM [inhibitor, single point] | 
18 | O=C(CCS(=O)(=O)c1ccc(F)cc1)Nc1nnc(-c2cccs2)o1 | inconclusive: 35.5 µM [inhibitor, single point] | 
19 | O=C(c1ccccc1)c1ccc2cc(O)ccc2c1 |  | inactive: -40.6%
20 | COC(=O)c1cc(S(=O)(=O)NCC2CCN(Cc3cccc(F)c3)CC2)c[nH]1 | inconclusive: 35.5 µM [inhibitor, single point] | 
21 | Nn1cnnc1N/N=C/c1ccc(Cl)cc1Cl | inconclusive: 22.4 µM [inhibitor, single point] | 
22 | C[C@H](O)[C@@H]1C(=O)N2CCc3c([nH]c4ccccc34)[C@@H]2C[C@@H]1N(C)C(=O)c1cc(Cl)cc(Cl)c1 | inconclusive: 20 µM [inhibitor, single point] | 
23 | O=C(CN1CCN(Cc2ccccc2)CC1)NC(c1ccccc1)c1ccccc1 | inconclusive: 35.5 µM [inhibitor, single point] | 

Row | Compound | Potency | activity, negative = inhibition
24 | Cc1ccccc1Cn1c(=O)n(CCc2ccccc2)c(=O)c2c(C)c(C)sc21 | inconclusive: 2 µM [inhibitor, partial curve] | 
25 | COc1cccc(OCCSc2nc3ccccc3n2CC(=O)N2CCCCC2)c1 |  | inactive: -9.29%
26 | COc1ccccc1Cc1c(-c2cccc(Cl)c2)nc2ccc(C)cn12 | active: 12.6 µM | 
27 | CCCCCCN1C[C@@H](n2cc(-c3ccc(F)cc3)nn2)[C@H](O)C[C@@H]1c1ccc(OC)cc1 | inconclusive: 17.8 µM [inhibitor, single point] | 
28 | Cc1cc(C(=O)COC(=O)c2ccc(O)cc2)c(C)n1CC1COc2ccccc2O1 (configuration not stated) | inconclusive: 35.5 µM [inhibitor, single point] | 
29 | COc1ccc(/C=C\C(=O)Oc2cccc(/C=N/NC(=O)Cc3ccc(OC)c(OC)c3)c2)cc1 | inconclusive: 35.5 µM [inhibitor, single point] | 
30 | CN(CC(=O)Nc1ccccc1Cl)C(=O)c1cccc(S(=O)(=O)N2CCN(c3ccccc3)CC2)c1 | inconclusive: 14.1 µM [inhibitor, partial curve, poor fit] | 
31 | CC1(C(=O)NCc2ccccc2Br)CCN1C(=O)CCc1ccc(Cl)cc1Cl (configuration not stated) | inconclusive: 12.6 µM [inhibitor, partial curve, poor fit] | 
32 | CCc1ccc(-c2nc(CN3CCCC(C(=O)N4CCN(c5cc(Cl)ccc5C)CC4)C3)c(C)o2)cc1 (configuration not stated) | inconclusive: 5.62 µM [inhibitor, partial curve, poor fit] | 
33 | O=C1C2CC=CCC2C(=O)N1c1ccc(OCC(O)Cn2nnc3ccccc32)cc1 (configuration not stated) | inconclusive: 7.94 µM [inhibitor, partial curve, poor fit] | 
34 | COc1ccc(Cl)cc1NC(=O)CN(C)S(=O)(=O)c1ccc2c(c1)CCCN2C(C)=O | inconclusive: 25.1 µM [inhibitor, single point] | 
35 | O=C(CC1C(=O)NCCN1Cc1cccc(C(F)(F)F)c1)NCCc1cnccn1 (configuration not stated) |  | inactive: 4.11%
36 | N/C(=N\OC(=O)CSc1ccccc1)c1cccc([N+](=O)[O-])c1 |  | inactive: 14.4%
37 | COc1ccc(CCN(Cc2cccs2)S(=O)(=O)c2ccc(S(=O)(=O)N3CCCCCC3)cc2)cc1OC |  | inactive: -14.3%
38 | Cc1cc(-n2c(SCC(=O)NCc3cccs3)nc3n[nH]c(C)c3c2=N)ccc1Cl | inconclusive: 14.1 µM [inhibitor, partial curve, poor fit] | 
39 | Cc1ccc(Cl)cc1N1CCN(C(=S)NCc2ccco2)CC1 | active: 15.8 µM | 
40 | O=C(N/N=C(\c1ccccc1)c1cccnc1)c1cccc(F)c1 | inconclusive: 12.6 µM [inhibitor, partial curve, poor fit] | 
41 | COc1ccc(-c2cccc(NS(=O)(=O)c3cc(C)c(OC)c(C)c3C)c2)nn1 | inconclusive: 10 µM [inhibitor, partial curve, poor fit] | 
42 | COC(=O)c1ccc(C(=O)NC(=S)Nc2nc3c(s2)CCCC3)cc1 | inconclusive: 0.112 µM [inhibitor, full curve, poor fit] | 
43 | COc1ccc(N2C(=O)CC(N(C)CCc3ccc(OC)c(OC)c3)C2=O)cc1 (configuration not stated) |  | inactive: 4.23%
44 | Cc1ccc(NC(=O)C2CCCN2S(=O)(=O)c2ccc3c(c2)CCCC(=O)N3)cc1C (configuration not stated) | inconclusive: 2.82 µM [inhibitor, full curve, poor fit] | 
45 | O=C(NCCc1ccc(Cl)cc1)c1cnccn1 |  | inactive: 1.07%
46 | O=[N+]([O-])c1cccc(-c2cnc3ccccc3n2)c1 | inconclusive: 3.16 µM [inhibitor, single point] | 

Row | Compound | Potency | activity, negative = inhibition
47 | COc1cc(/C=N/O)cc(Br)c1OS(=O)(=O)c1ccc(C)cc1 | inconclusive: 35.5 µM [inhibitor, single point] | 
48 | O=C(Cn1c(-c2cccs2)cc2cc(Cl)ccc21)N1CCN(c2ccccc2)CC1 | inconclusive: 14.1 µM [inhibitor, single point] | 
49 | Clc1ccc(CN2CCC(Cc3ccccc3)CC2)cc1 | inconclusive: 35.5 µM [inhibitor, single point] | 
50 | COc1ccc(/C=C/c2ccccn2)cc1 | inconclusive: 8.91 µM [inhibitor, partial curve, poor fit] | 
51 | CCN(CC)S(=O)(=O)c1ccc(N2CC(C(=O)Nc3cccc(C(=O)NC4CC4)c3)CC2=O)cc1 (configuration not stated) |  | inactive: 3.92%
52 | Cc1ccc(NC(=O)COc2ccc(N(C)C(=O)C(C)(C)C)cc2)cc1S(=O)(=O)N1CCCCC1 | inconclusive: 15.8 µM [inhibitor, partial curve, poor fit] | 
53 | O=C(CN1CCN(c2ccccc2)CC1)Nc1ccc(Oc2ccccc2)cc1 | inconclusive: 0.112 µM [inhibitor, full curve, poor fit] | 
54 | COc1cc2nc(CN3CCC(Cc4ccccc4)CC3)[nH]c(=O)c2cc1OC |  | inactive: 24.1%
55 | COc1ccc(NC(=O)C(c2ccc(C)cc2)N(C)C(=O)Cc2cccs2)cc1 (configuration not stated) | inconclusive: 0.112 µM [inhibitor, full curve, poor fit] | 
56 | O=C(O)c1cccc(S(=O)(=O)N2CCCC2)c1 | inconclusive: 35.5 µM [inhibitor, single point] | 
57 | COc1ccc(-c2cc(C(F)F)n3ncc(C(=O)N4CCN5CCCC5C4)c3n2)cc1 (configuration not stated) | inconclusive: 5.62 µM [inhibitor, single point] | 
58 | O=c1c(N2CCOCC2)c(N2CCOCC2)c1=O | inconclusive: 0.501 µM [inhibitor, full curve, poor fit] | 
59 | Cc1cccn2c(=O)c(C=O)c(Cl)nc12 | active: 15.8 µM | 
60 | Cc1cc(N2CCOCC2)nc2ccccc12 | inconclusive: 0.631 µM [inhibitor, full curve, poor fit] | 
61 | O=C(O)CC1(CC(=O)Nc2cc(C(F)(F)F)cc(C(F)(F)F)c2)CCCCC1 | inconclusive: 20 µM [inhibitor, single point] | 
62 | CC=Cc1cc2c(c(=O)o1)C(=O)C(O)C(C)O2 (configuration not stated) | active: 11.2 µM | 
63 | COc1ccc(-c2csc3ncnc(Sc4nnnn4C)c23)cc1 | active: 17.8 µM | 
64 | CCCCC1CCC(C(=O)Nc2ccccc2N2CCOCC2)CC1 (configuration not stated) | inconclusive: 35.5 µM [inhibitor, single point] | 
65 | O=C(CSc1ccc2c(c1)OCCO2)NC(=O)Cc1ccccc1 |  | inactive: -52.3%
66 | CCN1C(=O)c2ccccc2S(=O)c2ccc(C(=O)NCc3ccc(F)cc3)cc21 (configuration not stated) | inconclusive: 35.5 µM [inhibitor, single point] | 
67 | O=C1c2ccccc2C(=O)c2c1ccc1c(=O)n(C3CCCCC3)[nH]c21 | inconclusive: 3.98 µM [inhibitor, full curve, poor fit] | 
